The source gives no read counts; variants with many changes may rest on few reads.

The labels stand for the following.
B1: CPEB3 Ribozyme (parent)
chain: UAACAGGGGGCCACAGCAGAAGCGUUCACGUCGCAGCCCCUGUCAGAUUCUGGUGAAUCUGCGAAUUCUGCUGUAUAUCUC

The variants in this series derive from B1. The experiment in a line: self-cleavage, relative activity (ratio to wild type); higher = more cleavage; in vitro, sequencing. A digest of the protocol: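 Libraries of CPEB3 self-cleaving ribozyme mutants came from rounds of error-prone PCR and carried barcodes, which DNA sequencing matched to variants. In vitro transcription used T7 RNA polymerase at 37°C for 5 hours, with a further 15 min in DNase I before EDTA stopped the reaction; the ribozymes cleaved during both steps. The RNA was reverse transcribed with template switching and sequenced on Illumina. Relative activity is the cleaved/total read fraction of a variant divided by that of the unmutated ribozyme, averaged over three batches with at least 5 reads.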
Turning to UAACAGGGGGCCACUGCAGAAGCGUUCACGCCGCAGCCCCUGUCAGAUUCUGGUGAAUCUGCGGAUUCUGCCGUAUAUCUC [A15U U31C A64G U72C], the self-cleavage was 0.16.
With UAACAGGGGGCCACUGCAGAAGCGUUCACGUCGCAGCCCCAGUCAGAUUCUGGUGAAUCUGCGAGGCCUGCUAUAUAUCUA [A15U U41A A65G U66G U67C G73A C81A] the figure was 0.03; with UAACAGGGGGCCACUGCAGAAGCGUUCACGCCGCAGCCCCUGUCAGAUUCUGGUGAAUCUGCGGAUUCUGCUGUAUACCUC [A15U U31C A64G U78C], 0.18.
Next, UAACAGGGGGCCACUGCAGAAGCGUUCACGCCGCAGCCCCUGGCAGAUUCUGGUGAAUCUGCGAAUUCUGCUGUAUAUCUC [A15U U31C U43G]: 0.06; UAACAGGGGGCCACUGCAGAAGCGUUCACGCCGCAGCCCCUGCCAGAUUCUGGUGAAUCUGCGAAUUCUGCUGUAUAUCUC [A15U U31C U43C]: 0.27; UAACAGGGGGCCACUGCAGAAGCGUUCACGUCGCAGCCCCUGCCAGAUUCGGGUGAGUCUGCGAGUUCUGCUGUAUACCUC [A15U U43C U51G A57G A65G U78C]: 0.05.
For UAACAGGGGGCCACUGCAGAAGCGUUCACGCCGCAGCCACUGUCAGAUUCUGGUGAAUCUGCGAAUUCUGCUGUAUACCUC [A15U U31C C39A U78C], the self-cleavage came to 0.09.
Consider UAACAGGGGGCCACUGCAGAAGCGUUCACGUCGCAGCCCCUGUCAGAUUCAGGUGAAUCUGCGAAUUCUGCCGUAUAUCUC [A15U U51A U72C], for which the self-cleavage was 1.08.
Regarding UAACAGGGGGCCACUGCAGAAGCGUUCACGUCGCAGCCCCAGUCAGAUUCUGGAGGAUCUGCGAAUUCUGCUGUAUAUCAC [A15U U41A U54A A56G U80A], the self-cleavage worked out at 0.25.
Next, UAACAGGGGGCCACUGCAGAAGCGUUCACGCCGCAGCCCUUGUCAGAUUCUGGUGAAUCUGCGAAUUCAGCUGUAUAUCUC [A15U U31C C40U U69A]: 0.07; UAACAGGGGGCCACUGCAGAAGCGUUCACGUCGCAGCCCCUGUCAGAUGCUGGUGAAUCUGCGAAUUCUGCUGGAUAUCUC [A15U U49G U74G]: 0.16; UAACAGGGGGCCACUGCAGAAGCGUUCACGCCGCAGCCCCUGUCAGAUUCAGGUGAAUCUGCGAGUUCUGCUGUAUAUCUC [A15U U31C U51A A65G]: 0.09.
Next, UAACAGGGGGCCACUGCAGAAGCGUUCACGUCGCAGCCCCUGUCAGAUUCCGGUGGAUCUGCGAAUCCUGCAGUAUAUCUC [A15U U51C A56G U67C U72A]: 0.15; UAACAGGGGGCCACUGCAGAAGCGUUCACGUCGCAGCCCCUGUCAGAUCCUGGUGAAUCUGCGAAUUCAGCUGUACAUCUC [A15U U49C U69A U76C]: 0.09; UAACAGGGGGCCACUGCAGAAGCGUUCACGUCGCAGCCCCCGUCUGAUUCUGGUGAAUCUGCGAAUUCUGCUGUAUAUCUC [A15U U41C A45U]: 0.51.
With UAACAGGGGGCCACUGCAGAAGCGUUCACGUCGCAGCCCCCGUCAGAUUCUGGUGAAUCUGCGAAUCCUGCUGUAUAUCUC [A15U U41C U67C] the figure was 0.19; with UAACAGGGGGCCACUGCAGAAGCGUUCACGACGCAGCCCCUGCCAGAUUCUGGUGAAUCUGCGAAUUCUGCUGUAUAUCUC [A15U U31A U43C], 0.32; with UAACAGGGGGCCACUGCAGAAGCGUUCACGUCGCAGCCCCAGUCAGAUUCUGGUGAAUCUGCGAAUUCUGCUGUAUACCUC [A15U U41A U78C], 0.35.
Regarding UAACAGGGGGCCACUGCAGAAGCGUUCACGACGCUGCCCCUACCUGAUUCUGGUGAAUCUGCGAAUUCUGCUGUAUAUCUC [A15U U31A A35U G42A U43C A45U], the self-cleavage came to 0.1.
Next, UAACAGGGGGCCACUGCAGAAGCGUUCACGUCGCAGCCCCUGUCAGACUCUGGUGAAUCUGCGAAUUCUGCUGUAUGUCUC [A15U U48C A77G]: 0.22; UAACAGGGGGCCACUGCAGAAGCGUUCACGUCGCAGCCCCCGUCAGAUUCUGGUGAAUCUGCGAAUUCCGCUGUAUAUCUC [A15U U41C U69C]: 0.68.
Consider UAACAGGGGGCCACUGCAGAAGCGUUCACGUCGCAGCCCCUGUCAGAUCCUGGUGGAUCUGUGAAUUCUGUUGUGUAUCUC [A15U U49C A56G C62U C71U A75G], for which the self-cleavage worked out at 0.07.
For the variant UAACAGGGGGCCACUGCAGAAGCGUGCACGUCGCAGCCCUUGUCAGAUUCUGGUGAAUCUGCGAUUUCUGCUGUAUAUCUC [A15U U26G C40U A65U], the self-cleavage stood at 0.53.
With UAACAGGGGGCCACUGCAGAAGCGUCCACGUCGCAGCCCCUGUCAGAUUCUGGUGAAUCUGCGAAUUCUGCUGUAUACCUC [A15U U26C U78C] the figure was 0.37.
On to UAACAGGGGGCCACUGCAGAAGCGUUCACGUCGCAGCCCCCGUCGGAUUCAGGUGAAUCUGCGAUUUCUGCUGUAUAUCUC [A15U U41C A45G U51A A65U], for which the self-cleavage came to 0.12.
Next, UAACAGGGGGCCACUGCAGAAGCGUCCACGUCGCAGCCCCUGUCAGAUUCUGGUGAAUCUGCGAAUACUGCUGUAUAUCUC [A15U U26C U67A]: 0.24; UAACAGGGGGCCACUGCAGAAGCGUCCACGUCGCAGCCCCUGUCAGAUUCUGGCGAAUCUGCGAAUUCUGCUGUAUAUCUC [A15U U26C U54C]: 0.23.
On to UAACAGGGGGCCACUGCAGAAGCGUUCACGUCGCAGCCCCUGUCAGACUCUGGAGGAUCUGCGAAUUCUGCUGUAUAUCUC [A15U U48C U54A A56G], for which the self-cleavage amounted to 0.23.
Take UAACAGGGGGCCACUGCAGAAGCGUUCACGCCGCAGCCCUUGUCAGAUUCUGGUGGAUCAGCGAAAUCUGCUGUAUAUCGC [A15U U31C C40U A56G U60A U66A U80G]: the self-cleavage stood at 0.04.
With UAACAGGGGGCCACUGCAGAAGCGUCCACGUCGCAGCCCUUGUCAGAUUCUGGCGAAUCUGCGAGUUCUGCUGUAUGUCUC [A15U U26C C40U U54C A65G A77G] the figure was 0.16.
On to UAACAGGGGGCCACUGCAGAAGCGUUCACGUCGCAGCCCCUGCCAGAUUCUGGCGAAUCUGCUAAUUCUGCUGCAUAUCUC [A15U U43C U54C G63U U74C], for which the self-cleavage amounted to 0.44.
Turning to UAACAGGGGGCCACUGCAGAAGCGUCCACGACGCAGCCCCUGUCAGAUUCUGGUGAAUCUGCGAAUUCUGCUGUAUAUCUC [A15U U26C U31A], the self-cleavage was determined as 0.26.
UAACAGGGGGCCACUGCAGAAGCGUUCACGGCGCAGCCCCAGUCAGAUUCUGGUGAUUCUGCGAAUUCUGCUGUAUAUCUC [A15U U31G U41A A57U]: the self-cleavage came out at 0.12.
In the case of UAACAGGGGGCCACUGCAGAAGCGUUCACGUCGCAGCCCCUGUCAGAUUCAGGUGGAUCUGUGAAUUCUGCCGUAUAUCAC [A15U U51A A56G C62U U72C U80A], the self-cleavage stood at 0.15.

The values above are taken from the RNAGym collection of RNA variant scans (doi:10.1093/nar/gkz1192).
